# The other results are listed elsewhere or left out.
# Columns and labels:
# Assay in all cases: glycan array binding signal (z-score within array); higher = stronger binding
# Conditions in all cases: glycan notation: IUPAC condensed, linker removed
# [1] = target: Fuc(a1-2)Gal(b1-4)GlcNAc(b1-3)Gal(b1-4)GlcNAc(b1-2)Man(a1-3)[Fuc(a1-2)Gal(b1-4)GlcNAc(b1-3)Gal(b1-4)GlcNAc(b1-2)Man(a1-6)]Man(b1-4)GlcNAc(b1-4)GlcNAc
# How it was run: (§1)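 The binding signal is a Z-score computed within each array. Data were drawn from 3228 arrays in the Consortium for Functional Glycomics database, restricted to those with a known protein sequence. Scores were averaged over arrays of the same protein sequence at different concentrations or buffers, and over linkers, and negative values can be taken as non-binding.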
# [2] = target: Fuc(a1-2)Gal(b1-4)GlcNAc(b1-3)Gal(b1-4)GlcNAc(b1-3)Gal(b1-4)GlcNAc
# How it was run: as §1
# [3] = target: Fuc(a1-2)Gal(b1-4)GlcNAc(b1-3)GalNAc
# How it was run: as §1
# [4] = target: Fuc(a1-2)Gal(b1-4)GlcNAc(b1-3)[Fuc(a1-2)Gal(b1-4)GlcNAc(b1-6)]GalNAc
# How it was run: as §1
# [5] = target: Fuc(a1-2)Gal(b1-4)GlcNAc(b1-3)[Fuc(a1-3)[Gal(b1-4)]GlcNAc(b1-6)]Gal(b1-4)Glc
# How it was run: as §1
# [6] = target: Fuc(a1-2)Gal(b1-4)GlcNAc(b1-6)GalNAc
# How it was run: as §1
# [7] = target: Fuc(a1-2)Gal(b1-4)GlcNAc6S
# How it was run: as §1
# [8] = target: Fuc(a1-2)Gal(b1-4)[Fuc(a1-3)]GlcNAc
# How it was run: as §1
# [9] = target: Fuc(a1-2)Gal(b1-4)[Fuc(a1-3)]GlcNAc(b1-2)Man(a1-3)[Fuc(a1-2)Gal(b1-4)[Fuc(a1-3)]GlcNAc(b1-2)Man(a1-6)]Man(b1-4)GlcNAc(b1-4)[Fuc(a1-6)]GlcNAc
# How it was run: as §1
# [10] = target: Fuc(a1-2)Gal(b1-4)[Fuc(a1-3)]GlcNAc(b1-2)[Fuc(a1-2)Gal(b1-4)[Fuc(a1-3)]GlcNAc(b1-4)]Man(a1-3)[Fuc(a1-2)Gal(b1-4)[Fuc(a1-3)]GlcNAc(b1-2)Man(a1-6)]Man(b1-4)GlcNAc(b1-4)GlcNAc
# How it was run: as §1
# [11] = target: Fuc(a1-2)Gal(b1-4)[Fuc(a1-3)]GlcNAc(b1-3)Gal(b1-4)[Fuc(a1-3)]GlcNAc
# How it was run: as §1
# [12] = target: Fuc(a1-2)Gal(b1-4)[Fuc(a1-3)]GlcNAc(b1-3)Gal(b1-4)[Fuc(a1-3)]GlcNAc(b1-3)Gal(b1-4)[Fuc(a1-3)]GlcNAc
# How it was run: as §1
# [13] = target: Fuc(a1-2)Gal(b1-4)[Fuc(a1-3)]GlcNAc(b1-3)GalNAc
# How it was run: as §1
# [14] = target: Fuc(a1-2)Gal(b1-4)[Fuc(a1-3)]GlcNAc(b1-3)[Neu5Ac(a2-6)Gal(b1-4)GlcNAc(b1-6)]Gal(b1-4)Glc
# How it was run: as §1
# [15] = target: Fuc(a1-2)Gal3S(b1-4)GlcNAc
# How it was run: as §1
# [16] = target: Fuc(a1-2)Gal6S(b1-3)GlcNAc
# How it was run: as §1
# [17] = target: Fuc(a1-2)Gal6S(b1-3)GlcNAc6S
# How it was run: as §1
# Fuc(a1-2)Gal6S(b1-4)Glc = target: Fuc(a1-2)Gal6S(b1-4)Glc
# How it was run: as §1
# [18] = target: Fuc(a1-2)Gal6S(b1-4)Glc6S
# How it was run: as §1
# Fuc(a1-2)[Gal(a1-3)]Gal = target: Fuc(a1-2)[Gal(a1-3)]Gal
# How it was run: as §1
# [19] = target: Fuc(a1-2)[Gal(a1-3)]Gal(b1-3)GalNAc
# How it was run: as §1
# [20] = target: Fuc(a1-2)[Gal(a1-3)]Gal(b1-3)GalNAc(b1-3)Gal(a1-4)Gal(b1-4)Glc
# How it was run: as §1
# [21] = target: Fuc(a1-2)[Gal(a1-3)]Gal(b1-3)GlcNAc
# How it was run: as §1
# [22] = target: Fuc(a1-2)[Gal(a1-3)]Gal(b1-3)GlcNAc(b1-2)Man(a1-3)[Fuc(a1-2)[Gal(a1-3)]Gal(b1-3)GlcNAc(b1-2)Man(a1-6)]Man(b1-4)GlcNAc(b1-4)GlcNAc
# How it was run: as §1
# [23] = target: Fuc(a1-2)[Gal(a1-3)]Gal(b1-3)GlcNAc(b1-2)Man(a1-3)[Fuc(a1-2)[Gal(a1-3)]Gal(b1-3)GlcNAc(b1-2)Man(a1-6)]Man(b1-4)GlcNAc(b1-4)[Fuc(a1-6)]GlcNAc
# How it was run: as §1
# [24] = target: Fuc(a1-2)[Gal(a1-3)]Gal(b1-3)GlcNAc(b1-3)GalNAc
# How it was run: as §1
# [25] = target: Fuc(a1-2)[Gal(a1-3)]Gal(b1-3)GlcNAc(b1-6)GalNAc
# How it was run: as §1
# [26] = target: Fuc(a1-2)[Gal(a1-3)]Gal(b1-4)Glc
# How it was run: as §1
# [27] = target: Fuc(a1-2)[Gal(a1-3)]Gal(b1-4)GlcNAc
# How it was run: as §1
# [28] = target: Fuc(a1-2)[Gal(a1-3)]Gal(b1-4)GlcNAc(b1-2)Man
# How it was run: as §1
# [29] = target: Fuc(a1-2)[Gal(a1-3)]Gal(b1-4)GlcNAc(b1-2)Man(a1-3)[Fuc(a1-2)[Gal(a1-3)]Gal(b1-4)GlcNAc(b1-2)Man(a1-6)]Man(b1-4)GlcNAc(b1-4)GlcNAc
# How it was run: as §1
# [30] = target: Fuc(a1-2)[Gal(a1-3)]Gal(b1-4)GlcNAc(b1-2)Man(a1-3)[Fuc(a1-2)[Gal(a1-3)]Gal(b1-4)GlcNAc(b1-2)Man(a1-6)]Man(b1-4)GlcNAc(b1-4)[Fuc(a1-6)]GlcNAc
# How it was run: as §1
# [31] = target: Fuc(a1-2)[Gal(a1-3)]Gal(b1-4)GlcNAc(b1-3)GalNAc
# How it was run: as §1
# [32] = target: Fuc(a1-2)[Gal(a1-3)]Gal(b1-4)GlcNAc(b1-3)[Fuc(a1-2)[Gal(a1-3)]Gal(b1-4)GlcNAc(b1-6)]GalNAc
# How it was run: as §1
# [33] = target: Fuc(a1-2)[Gal(a1-3)]Gal(b1-4)GlcNAc(b1-6)GalNAc
# How it was run: as §1
# [34] = target: Fuc(a1-2)[Gal(a1-3)]Gal(b1-4)[Fuc(a1-3)]Glc
# How it was run: as §1
# [35] = target: Fuc(a1-2)[Gal(a1-3)]Gal(b1-4)[Fuc(a1-3)]GlcNAc
# How it was run: as §1
binder,measurement,setting,value
"DC-Sign (Homo sapiens), Q9NNX6 (protein) MSDSKEPRLQQLGLLEEEQLRGLGFRQTRGYKSLAGCLGHGPLVLQLLSFTLLAGLLVQVSKVPSSISQEQSRQDAIYQNLTQLKAAVGELSEKSKLQEIYQELTQLKAAVGELPEKSKLQEIYQELTRLKAAVGELPEKSKLQEIYQELTWLKAAVGELPEKSKMQEIYQELTRLKAAVGELPEKSKQQEIYQELTRLKAAVGELPEKSKQQEIYQELTRLKAAVGELPEKSKQQEIYQELTQLKAAVERLCHPCPWEWTFFQGNCYFMSNSQRNWHDSITACKEVGAQLVVIKSAEEQNFLQLQSSRSNRFTWMGLSDLNQEGTWQWVDGSPLLPSFKQYWNRGEPNNVGEEDCAEFSGNGWNDDKCNLAKFWICKKSAASCSRDEEQFLSPAPATPNPPPA",glycan array binding signal (z-score),[1],1.11
same,glycan array binding signal (z-score),[2],-0.142
same,glycan array binding signal (z-score),[3],-0.15
same,glycan array binding signal (z-score),[4],-0.181
same,glycan array binding signal (z-score),[5],-0.077
same,glycan array binding signal (z-score),[6],-0.16
same,glycan array binding signal (z-score),[7],-0.179
same,glycan array binding signal (z-score),[8],0.911
same,glycan array binding signal (z-score),[9],9.49
same,glycan array binding signal (z-score),[10],-0.174
same,glycan array binding signal (z-score),[11],12.6
same,glycan array binding signal (z-score),[12],6.53
same,glycan array binding signal (z-score),[13],-0.126
same,glycan array binding signal (z-score),[14],-0.045
same,glycan array binding signal (z-score),[15],-0.055
same,glycan array binding signal (z-score),[16],-0.179
same,glycan array binding signal (z-score),[17],-0.139
same,glycan array binding signal (z-score),Fuc(a1-2)Gal6S(b1-4)Glc,-0.089
same,glycan array binding signal (z-score),[18],-0.161
same,glycan array binding signal (z-score),Fuc(a1-2)[Gal(a1-3)]Gal,0.684
same,glycan array binding signal (z-score),[19],-0.163
same,glycan array binding signal (z-score),[20],-0.097
same,glycan array binding signal (z-score),[21],-0.126
same,glycan array binding signal (z-score),[22],-0.155
same,glycan array binding signal (z-score),[23],0.153
same,glycan array binding signal (z-score),[24],-0.189
same,glycan array binding signal (z-score),[25],-0.194
same,glycan array binding signal (z-score),[26],-0.125
same,glycan array binding signal (z-score),[27],-0.192
same,glycan array binding signal (z-score),[28],-0.192
same,glycan array binding signal (z-score),[29],-0.158
same,glycan array binding signal (z-score),[30],-0.034
same,glycan array binding signal (z-score),[31],-0.195
same,glycan array binding signal (z-score),[32],-0.109
same,glycan array binding signal (z-score),[33],-0.15
same,glycan array binding signal (z-score),[34],-0.108
same,glycan array binding signal (z-score),[35],-0.13

# Reference: the supplement of paper PMC8728848
